These results are taken from PMC7819943, “Rice protein-binding microarrays: a tool to detect cis-acting elements near promoter regions in rice”.

Some of the results follow.

The test concerns the target T1, OsWOX13 (Oryza sativa, UniProt Q5QMM3 1-267).
T1 sequence: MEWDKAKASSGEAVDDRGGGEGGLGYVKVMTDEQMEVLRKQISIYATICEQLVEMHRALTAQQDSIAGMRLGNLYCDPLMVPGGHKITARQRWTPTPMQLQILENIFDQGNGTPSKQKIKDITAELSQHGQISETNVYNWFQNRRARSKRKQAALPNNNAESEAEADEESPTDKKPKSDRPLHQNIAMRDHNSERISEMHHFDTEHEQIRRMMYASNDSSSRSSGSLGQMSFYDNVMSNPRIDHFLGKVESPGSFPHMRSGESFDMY
The experiment in a line: protein-binding microarray (RPBM); PBS, 2% BSA, 51.3 ng/ul salmon testes DNA, 50 uM zinc acetate, 200 nM TF, 25 C, 1 h; high values mean tight binding. The note with it: protein: recombinant; tags: N-terminal polyhistidine and DsRed monomer fusion (pET32a); label: CyDye5-dUTP incorporated in the synthesized complementary strand; 3' TTTTT single-stranded linker to array surface; dsDNA, one strand shown. In a few lines:
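The binding signal is fluorescence intensity per array feature (arbitrary units). Readings came from an Axon 4000B scanner after a washed, 2% BSA-blocked, double-stranded custom Agilent array had been incubated for 1 h at 25 °C with 200 nM protein and 50 µM zinc acetate. The protein was a Ni–NTA-purified transcription factor fused N-terminally to polyhistidine and DsRed, expressed in E. coli BL21-CodonPlus.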
Turning to “CCGTGCTTAATTAACTACTATTAGGTATGTGGTATTTATACGGAGTCACCTAGTGCAG”, the binding signal is 8400 fluorescence intensity (a.u.). As for “TATAAATTTGTGTCCGGTTTATTGGGTTTGAATTGAATTGCGGAGTCACCTAGTGCAG”, the binding signal is 14600 fluorescence intensity (a.u.). For “ATATATATATATATATATATATATATATATAGTGGAATGACGGAGTCACCTAGTGCAG”, the binding signal was 23500 fluorescence intensity (a.u.). Turning to “CAAACTAGATTTGTTGCTAAATTGAATTGTTATGTCATTACGGAGTCACCTAGTGCAG”, the binding signal is 22800 fluorescence intensity (a.u.). Take “ACTAATTATAAATCAGAACGATTTATTAACTACTCAATAACGGAGTCACCTAGTGCAG”: the binding signal was 24400 fluorescence intensity (a.u.). For “GCTAATCATGGACTAATTAGGCTCAAAAGATTCGTCTCACCGGAGTCACCTAGTGCAG” the value was 28700 fluorescence intensity (a.u.); for “AACCTTGATTTGTTCTCCCTAGCTGTAAATAATTTCACAGCGGAGTCACCTAGTGCAG”, 31800 fluorescence intensity (a.u.).

“ATCTTGATTGGACGGTCCAGATTTCTCCAATTCTGAACAACGGAGTCACCTAGTGCAG”: the binding signal is 39300 fluorescence intensity (a.u.). As to “GTACTTAACCACAAGTGTCAATCATGTCAATCCCTGCTCACGGAGTCACCTAGTGCAG”, the binding signal is 16500 fluorescence intensity (a.u.). For the sequence “TGAAAACTAACAAATTAAAACAAAACATACAGGGCCCATACGGAGTCACCTAGTGCAG”, the binding signal is 4750 fluorescence intensity (a.u.). As to “TTAACCGATAATTAGTATAATATAGATTGAATTATGTTCGCGGAGTCACCTAGTGCAG”, the binding signal is 23800 fluorescence intensity (a.u.). Take “GCCGGGCCTGATTGGGCCGGAATGGGCCGCCTCCGCCGCCCGGAGTCACCTAGTGCAG”: the binding signal was 12300 fluorescence intensity (a.u.). Then “ACACAATTACACAAACGGTCACCGCGACTGCACGAAGACACGGAGTCACCTAGTGCAG”, with 3210 fluorescence intensity (a.u.); and “CCTTGTCAATTTTCACTCCGTATAAAATAAATAGCTACTTCGGAGTCACCTAGTGCAG”, with 4240 fluorescence intensity (a.u.).

Turning to “CAATTAACCCAATCAGCACAAGTCTACATGTCTCCTTCCTCGGAGTCACCTAGTGCAG”, the binding signal is 9370 fluorescence intensity (a.u.). For “ATGCCCTTCAATTATAACAGGAAGATGTCCAGATTCATAACGGAGTCACCTAGTGCAG” the value was 4400 fluorescence intensity (a.u.); for “CTGTCATACATATTATAATTAAATGTAATTATATTTGAAACGGAGTCACCTAGTGCAG”, 8220 fluorescence intensity (a.u.); for “TCTTGTCATTAATTAATTATTAACGCGGCTAAGGAAATAACGGAGTCACCTAGTGCAG”, 23000 fluorescence intensity (a.u.). As to “TTGAATAATTGATTCATATGTCTTATCATTATTTCTTCTCCGGAGTCACCTAGTGCAG”, the binding signal was 44400 fluorescence intensity (a.u.). For “TCTGATTATCCTATGCCTGCCGTGTTTAAGTGGTGTGTGTCGGAGTCACCTAGTGCAG” the value was 34600 fluorescence intensity (a.u.); for “GGCGACTAATCATGTTCATCACCTGCACACACACAAAATTCGGAGTCACCTAGTGCAG”, 6940 fluorescence intensity (a.u.); for “AGATTTAATTGTTACGAATACAACGGTGTACTCGGATCGTCGGAGTCACCTAGTGCAG”, 20800 fluorescence intensity (a.u.).

Consider “TTATATTTTGAATTAGATTAAGTAATTTCATATAGTGGTACGGAGTCACCTAGTGCAG”, for which the binding signal is 3890 fluorescence intensity (a.u.). Regarding “ACTGACAGATTTGTAGTTGAGGAATTCAGGGCGTGGTGTACGGAGTCACCTAGTGCAG”, the binding signal is 42000 fluorescence intensity (a.u.). “TCCTTAATTGAGCCCATTACCCACATGGGCCGTAGCCCAGCGGAGTCACCTAGTGCAG”: the binding signal is 40000 fluorescence intensity (a.u.). For “TTTTAACTGGAAATTTGATGATGTAAATTCTTCATAGATTCGGAGTCACCTAGTGCAG”, the binding signal was 28800 fluorescence intensity (a.u.).

Turning to “TACACAAATTGTTTAATCCAAGATCTTTCAATCTTTTCTTCGGAGTCACCTAGTGCAG”, the binding signal is 7240 fluorescence intensity (a.u.). Consider “GAGTAATAATCAGCGATCAATAAATACCATCTTCTCCGAGCGGAGTCACCTAGTGCAG”, for which the binding signal is 4210 fluorescence intensity (a.u.). Turning to “GCGTAAGGTGATCACCTGATGATTGCAAATTTGGGTGATCCGGAGTCACCTAGTGCAG”, the binding signal was 20000 fluorescence intensity (a.u.). With “AGATAAATCATACTTAAATTGCTTTTGATAATAAATCAAGCGGAGTCACCTAGTGCAG”, the binding signal is 14500 fluorescence intensity (a.u.). Consider “AACCTCTTCAATTACCAAATTTTACAGGGTAACAATGGCACGGAGTCACCTAGTGCAG”, for which the binding signal was 10400 fluorescence intensity (a.u.). In the case of “CTGTTCAATCTCATCCGTCTTCTTCCTGATAGCCATCTTCCGGAGTCACCTAGTGCAG”, the binding signal is 6470 fluorescence intensity (a.u.). Then “GAATCACCCAATTGATATCATGAAATTTGTCCAGTGTTTACGGAGTCACCTAGTGCAG”, with 3360 fluorescence intensity (a.u.); and “GAATTTAATTTGGATTTCGCAATATCCGGACTTTCCAATCCGGAGTCACCTAGTGCAG”, with 4090 fluorescence intensity (a.u.); and “TTTGATGGGAGTTGCGTCATAATCATGAACTTATCAATGGCGGAGTCACCTAGTGCAG”, with 13500 fluorescence intensity (a.u.). On to “ATAAATCTATATAATTGTGTGTTCAGATTTATAGCTAAAACGGAGTCACCTAGTGCAG”, for which the binding signal was 6870 fluorescence intensity (a.u.). For the sequence “ATGATATAATTTCTATTAATCCATATTATTAAATTGCATCCGGAGTCACCTAGTGCAG”, the binding signal was 21300 fluorescence intensity (a.u.). On to “TGGCTTATGATTATGACCTGGAAGTATAACTGTTTCTGGTCGGAGTCACCTAGTGCAG”, for which the binding signal is 5000 fluorescence intensity (a.u.). Take “CTTGGTCTCTTAATTAGCCATTCAATTTTGTAGTTAAGATCGGAGTCACCTAGTGCAG”: the binding signal is 6680 fluorescence intensity (a.u.). Regarding “GTGGCATTTAGGTAATTAATTTAGTTTTATTTGTTACCTGCGGAGTCACCTAGTGCAG”, the binding signal is 10200 fluorescence intensity (a.u.). Regarding “TTAACTTTATAATTTATAAGTTGATTTGTATCTGGATGAACGGAGTCACCTAGTGCAG”, the binding signal is 26200 fluorescence intensity (a.u.). “AAATAACGGAAATTAAAATACTATTAAGAGGCTATATCGCCGGAGTCACCTAGTGCAG”: the binding signal is 5240 fluorescence intensity (a.u.). Take “TTCTAAAATTTTAAAGTAACAAATTGCAAGTTATAAACATCGGAGTCACCTAGTGCAG”: the binding signal is 3340 fluorescence intensity (a.u.). For “TCTTGTGCATAGCATGCGCTGATTGGCCAATATCATATTGCGGAGTCACCTAGTGCAG” the value was 4120 fluorescence intensity (a.u.); for “TATAAATTGAAACCATTGAACGTACTTTGTCTTCCCGTCCCGGAGTCACCTAGTGCAG”, 31400 fluorescence intensity (a.u.); for “GTTCTGATAGATAGACTGATACTGCTACTCTGCATTAGAACGGAGTCACCTAGTGCAG”, 41200 fluorescence intensity (a.u.). Then “ATGGTTTAATTATTGGGTATTTATCATCCAGGCTCATTTACGGAGTCACCTAGTGCAG”, with 6640 fluorescence intensity (a.u.); and “TTGATTGCAGGCACGGTGTTTCATCAGGATCAGTCGTGTCCGGAGTCACCTAGTGCAG”, with 23600 fluorescence intensity (a.u.); and “TAATAATTGATTAAACAGAGCAAATTTTAGCTTGCAGATACGGAGTCACCTAGTGCAG”, with 48500 fluorescence intensity (a.u.). Take “CCAATTTAATTTAAGAAATTGTAACTGCCGACCGGGGCGGCGGAGTCACCTAGTGCAG”: the binding signal was 16200 fluorescence intensity (a.u.). Regarding “TTTTGACGGAATAGATTTAAGAGACAGTTCTCGATCGAGTCGGAGTCACCTAGTGCAG”, the binding signal is 15800 fluorescence intensity (a.u.).

On to “TTCGATAATTGCTCAAATACCCTTATTAGGTTTGCATTAACGGAGTCACCTAGTGCAG”, for which the binding signal is 17600 fluorescence intensity (a.u.). Then “GCCTAAATCTAATTTACTTCTACTCTTTGAAACGGAAAAGCGGAGTCACCTAGTGCAG”, with 5880 fluorescence intensity (a.u.); and “AATAATTAGTGCAGAAAATTTTGACATAAATTTTGAAAATCGGAGTCACCTAGTGCAG”, with 24700 fluorescence intensity (a.u.).
